# Measurements published in PMC4336329 (PLoS ONE, 2015).
# Screen size: about 310,000 compounds; about 2,200 (0.71%) showed an effect of 50% or more. Effects have a minus sign here. The list shows a part of the results.
# Target: human ether-à-go-go-related gene (hERG) potassium channel (human, UniProt Q12809)
# Assay: primary screen, population patch clamp on CHO cells stably expressing hERG
# Sequence of human ether-à-go-go-related gene (hERG) potassium channel (Q12809 whole entry, looked up): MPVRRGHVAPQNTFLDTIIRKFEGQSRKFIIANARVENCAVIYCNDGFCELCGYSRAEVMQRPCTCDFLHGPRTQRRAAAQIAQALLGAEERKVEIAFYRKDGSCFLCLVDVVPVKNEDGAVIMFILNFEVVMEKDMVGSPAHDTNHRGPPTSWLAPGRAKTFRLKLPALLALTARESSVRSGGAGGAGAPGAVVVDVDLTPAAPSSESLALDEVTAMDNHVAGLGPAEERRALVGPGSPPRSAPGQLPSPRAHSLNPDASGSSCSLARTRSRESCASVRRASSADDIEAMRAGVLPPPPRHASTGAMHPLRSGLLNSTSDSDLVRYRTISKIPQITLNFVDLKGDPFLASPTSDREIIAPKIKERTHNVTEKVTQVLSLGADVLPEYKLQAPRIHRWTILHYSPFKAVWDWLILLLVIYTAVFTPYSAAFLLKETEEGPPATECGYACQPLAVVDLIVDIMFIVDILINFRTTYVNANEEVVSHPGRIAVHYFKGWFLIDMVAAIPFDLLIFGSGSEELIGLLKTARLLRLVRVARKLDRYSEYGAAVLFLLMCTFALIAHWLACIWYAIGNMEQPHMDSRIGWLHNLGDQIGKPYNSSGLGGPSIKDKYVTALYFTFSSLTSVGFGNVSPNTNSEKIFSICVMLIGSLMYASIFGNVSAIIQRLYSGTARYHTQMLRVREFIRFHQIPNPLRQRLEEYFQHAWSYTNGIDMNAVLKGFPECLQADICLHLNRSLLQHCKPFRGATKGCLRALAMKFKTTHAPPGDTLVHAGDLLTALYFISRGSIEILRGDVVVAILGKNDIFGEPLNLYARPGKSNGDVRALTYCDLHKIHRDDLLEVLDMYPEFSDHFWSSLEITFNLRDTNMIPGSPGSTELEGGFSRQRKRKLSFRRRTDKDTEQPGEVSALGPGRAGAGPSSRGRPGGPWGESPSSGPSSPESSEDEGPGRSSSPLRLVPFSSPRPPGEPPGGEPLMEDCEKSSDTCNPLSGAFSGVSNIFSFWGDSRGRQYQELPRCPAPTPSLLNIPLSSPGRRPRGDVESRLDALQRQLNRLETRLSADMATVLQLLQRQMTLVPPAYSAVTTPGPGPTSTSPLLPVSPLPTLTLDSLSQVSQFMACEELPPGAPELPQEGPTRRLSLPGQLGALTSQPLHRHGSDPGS
row,SMILES,"hERG current change (%, negative = inhibition) at 1uM [%]"
1,O=C(CN(Cc1cccs1)C(=O)CSc1nnc(COc2ccccc2)o1)NC1CCCC1,8.25
2,Cc1ccccc1OCCC(=O)Nc1cc(S(=O)(=O)N2CCOCC2)ccc1OC(C)C,9.36
3,Cc1ccccc1CN(CC1CCC(C(=O)O)CC1)C(=S)Nc1ccccc1F (stereo not drawn),12.5
4,COc1ccc(C2=C(c3ccc([N+](=O)[O-])cc3)C(=O)OC2)cc1,4.1
5,Nc1nc(SCC(=O)NCCCO)nc2sc3c(c12)CCC3,10.4
6,O=C(Cc1ccccc1[N+](=O)[O-])Nc1cccc(S(=O)(=O)NC2=NCCCCC2)c1,15.8
7,CCOC(=O)C1(Cc2ccc(Cl)cc2)CCN(C(=O)C2CCCO2)CC1 (stereo not drawn),4.14
8,CCCOc1ccc(C(=O)NCC(C)(C)N2CCOCC2)cc1,-4.68
9,C=CCn1c(C)cc(C(=O)COC(=O)/C=C/c2cccc(OC)c2)c1C,10.5
10,Cn1c(CN2CCCC2)nc2cc(NC(=O)COc3ccccc3)ccc21,-12.4
11,COc1ccc(-n2c(=S)[nH]c3[nH]ncc3c2=O)cc1,15.9
12,CN(C(=O)c1ccoc1)c1ccc2ccccc2c1,5.99
13,O=C1c2cc([N+](=O)[O-])ccc2-c2ncccc21,9.72
14,CCOC(=O)c1ccc(N2CN(CC)CNC2=S)cc1,15.5
15,c1nnnn1C12CC3CC(CC(C3)C1)C2,13.5
16,COc1ccc2[nH]c(C(=O)O)c(NS(=O)(=O)c3ccc(C)cc3C)c2c1,13.2
17,COc1ccc(CCNC(=O)C(CCC(N)=O)NS(=O)(=O)c2ccc(Cl)cc2)cc1OC (stereo not drawn),16
18,CCCCCCCCCC[N+](C)(C)CC/C=C1/c2ccccc2Sc2ccc(Cl)cc21.[Br-],1.09
19,Nc1n[nH]c(CO)n1.O=C(O)CO,18.5

row,SMILES,"hERG current change (%, negative = inhibition) at 1uM [%]"
1,O=c1c2ccccc2nc(/C=C/c2ccc(F)cc2)n1-c1ccccn1,9.86
2,O=C(/C=C/c1ccccc1)NCC1(c2ccccc2)CCOCC1,10.9
3,CN(C)S(=O)(=O)c1cccc(NC(=O)CCCc2nc3ccccc3c(=O)[nH]2)c1,9.64
4,COC(=O)c1sc(S(=O)(=O)Nc2ccc(Br)cc2)c(C(=O)OC)c1C,10.6
5,CC(C)(C)OC(=O)C(C)(C)Sc1nnc(N)s1,9.84
6,O=C(Nc1ccc(F)cc1)c1sccc1SCc1cccc(C(F)(F)F)c1,-0.0861
7,Cc1cc(C)c2cc(CN(CCN3CCCC3)C(=O)Nc3ccc(F)cc3)c(=O)[nH]c2c1,-57.9
8,O=C(CNC1CCCCC1)Nc1cc(S(=O)(=O)N2CCOCC2)ccc1Cl,15.2
9,CC(=O)c1cc(Cl)ccc1OCc1cccc(S(=O)(=O)N2CCOCC2)c1,-34.6
10,COc1ccc2c(c1)-c1ccccc1S(=O)(=O)N2C(C)=O,5.27
11,c1ccc(C2=Nn3c(nnc3-c3ccncc3)SC2)cc1,8.34
12,CCOC(=O)C1CCN(C(=O)CCn2c(=O)c3cccn3c3cccnc32)CC1,-8.62
13,COc1ccc(Nc2ccc(N3C(=O)CCCC3=O)cc2[N+](=O)[O-])c(OC)c1,9.05
14,Cc1cc(Nc2ccccc2)n(C(=O)c2ccc(Cl)cc2)n1,18.2
15,CCOc1ccc(CSCCNC(=S)Nc2ccc(OC)cc2)cc1,6.24
16,Cc1cc(CNC(=O)CC2C(=O)NCCN2Cc2ccc(-c3ccccc3)cc2)nn1C (stereo not drawn),11
17,O=C(Cn1cc[n+](CC(=O)c2ccccc2)c1)c1ccccc1.[Br-],4.99
18,CCSc1nnc(-c2ccccc2NC(=O)CC)c(=O)[nH]1,21.7
19,COc1ccc(CNC(=O)CN(Cc2ccc(F)cc2)C(=O)c2csnn2)cc1,-21.6

row,SMILES,"hERG current change (%, negative = inhibition) at 1uM [%]"
1,O=C(NCC1CCCO1)C(c1cccs1)N(Cc1ccccc1Cl)C(=O)c1ccc(-c2ccccc2)[nH]1 (stereo not drawn),20.4
2,O=C(c1ccc(Cl)cc1)N1CCC(C(=O)N2CCCc3ccccc32)CC1,-46.6
3,CCOc1ccc(NC(=O)Cc2ccccc2)cc1,7.84
4,COC(=O)C1=CN(CCCN2CCCC2=O)C=C(C(=O)OC)C1c1cccs1,8.6
5,COc1ccc(-c2sc3cc4c(cc3c2C#CC2(O)CCCCC2)OCO4)cc1,12.5
6,CCOC(=O)C12CNC(=O)C(C(=O)OCC)(CNC1=O)C2,12.8
7,O=C(Nc1ccccc1)c1cccc(-c2nnc(-c3ccccc3)o2)c1,-3.23
8,Cc1ccc(NC(=S)NCCSc2ccc(Cl)cc2)cc1,11.1
9,OC1(c2ccc(Br)cc2)CCN(Cc2cccc(Br)c2)CC1,1.5
10,COC(=O)c1ccc(COc2ccccc2/C=N/NS(=O)(=O)c2ccc(C)cc2)cc1,10.5
11,Cc1c(O)ccc(/C=N/Nc2nc(-c3cccnc3)nc3ccccc23)c1O,13.7
12,COc1ccccc1C(=O)Nc1nsc(-c2ccccc2)n1,-4.4
13,N#CC1=C(SCc2ccc(C#N)cc2)N=C(N)C(c2nc(-c3ccccc3)cs2)C12CCCCC2 (stereo not drawn),10.1
14,CCOc1ccc(CCNC(=O)c2ccc3c(=O)n4c(nc3c2)CCCCC4)cc1,15.9
15,CCc1ccc(NC(=S)Nc2cccc3cnccc23)cc1,2.22
16,CCCCOc1ccccc1NC(=O)c1ccc(=O)[nH]c1,10.2
17,CCc1nc(SCc2ccc(C(=O)OC)o2)n[nH]1,9.62
18,Cc1ccsc1C(=O)C1CCCN(Cc2ccccc2O)C1 (stereo not drawn),-3.16
19,O=C1CC(c2ccccc2)CC(O)=C1C=NCc1ccccc1Cl (stereo not drawn),6.73
